Laboratory results taken from PMC5540273 (PLoS ONE, 2017).
For part of these data: The strong results were mostly taken out for another list; the other results follow. The list shows a part of the results, in another mix than the full data.

The molecules below were run on CDKL1. Conditions: concentration: 1 μM,replicates: in singlicate; n = 1.
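Further: KINOMEscan kinase panel screen.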

In order of falling “%Inh” value:
1. Cc1ccc(C)c(Oc2nccc(-c3c(-c4ccc(F)cc4)ncn3C3CCNCC3)n2)c1.O=C(O)C(F)(F)F.O=C(O)C(F)(F)F.O=C(O)C(F)(F)F [SB-284852]  54%
2. CS(=O)(=O)c1ccccc1-c1nc(-c2ccc(F)cc2)c(-c2ccncc2)[nH]1 [SB-213663]  40%
3. O=C1NC(=O)C(c2ccc(Cl)cc2)=C1Nc1ccc(O)c(Cl)c1 [SB-405367]  37%
4. O=C(O)c1ccc(-c2nc(-c3ccc(F)cc3)c(-c3ccncc3)[nH]2)cc1 [SB-202620]  37%
5. Cc1cc(C)cc(Oc2nccc(-c3c(-c4ccc(F)cc4)ncn3C3CCNCC3)n2)c1.O=C(O)C(F)(F)F.O=C(O)C(F)(F)F.O=C(O)C(F)(F)F [SB-284851]  34%
6. O=C1NC(=O)C(c2ccc(Cl)cc2)=C1Nc1cccc(O)c1 [SB-333613]  30%
7. COc1ccc(C2=C(Nc3cccc(Cl)c3)C(=O)NC2=O)cc1 [SB-326892]  27%
8. O=C1NC(=O)c2c1c(-c1ccccc1)cc1[nH]c3ccc(O)cc3c21  20%
9. CSc1ccc(NC2=C(c3cccc(Cl)c3)C(=O)NC2=O)cc1 [SB-341528]  13%
10. COc1cccc(C2=C(Nc3ccc(SC)cc3)C(=O)NC2=O)c1 [SB-331032]  12%
11. O=C1NC(=O)C(c2ccc(Cl)cc2)=C1Nc1ccccc1 [SB-317661]  12%
12. O=C1NC(=O)C(c2ccc(Cl)cc2)=C1Nc1cccc(C(=O)O)c1 [SB-360737]  0%
13. O=C1NC(=O)C(c2ccccc2Cl)=C1Nc1cccc(C(=O)O)c1 [SB-390526]  0%
14. O=C1NC(=O)C(c2ccccc2)=C1Nc1cc(Cl)c(O)c(Cl)c1 [SB-390530]  0%
15. O=C1NC(=O)C(c2ccccc2)=C1Nc1ccc(Cl)c(C(=O)O)c1 [SB-390532]  0%
16. O=C1NC(=O)C(c2ccccc2Cl)=C1Nc1ccccc1 [SB-376715]  0%

Each molecule was assayed on CDKL2. Conditions: concentration: 1 μM,replicates: in singlicate; n = 1.

In order of falling “%Inh” value:
1. O=C1NC(=O)c2c1c(-c1ccccc1)cc1[nH]c3ccc(O)cc3c21  98.5%
2. O=C1NC(=O)C(c2ccccc2Cl)=C1Nc1cccc(C(=O)O)c1 [SB-390526]  59%
3. CS(=O)(=O)c1ccccc1-c1nc(-c2ccc(F)cc2)c(-c2ccncc2)[nH]1 [SB-213663]  44%
4. O=C1NC(=O)C(c2ccccc2)=C1Nc1cc(Cl)c(O)c(Cl)c1 [SB-390530]  38%
5. Cc1ccc(C)c(Oc2nccc(-c3c(-c4ccc(F)cc4)ncn3C3CCNCC3)n2)c1.O=C(O)C(F)(F)F.O=C(O)C(F)(F)F.O=C(O)C(F)(F)F [SB-284852]  37%
6. Cc1cc(C)cc(Oc2nccc(-c3c(-c4ccc(F)cc4)ncn3C3CCNCC3)n2)c1.O=C(O)C(F)(F)F.O=C(O)C(F)(F)F.O=C(O)C(F)(F)F [SB-284851]  28%
7. O=C1NC(=O)C(c2ccccc2Cl)=C1Nc1ccccc1 [SB-376715]  19%
8. CSc1ccc(NC2=C(c3cccc(Cl)c3)C(=O)NC2=O)cc1 [SB-341528]  16%
9. O=C1NC(=O)C(c2ccc(Cl)cc2)=C1Nc1cccc(C(=O)O)c1 [SB-360737]  9%
10. O=C(O)c1ccc(-c2nc(-c3ccc(F)cc3)c(-c3ccncc3)[nH]2)cc1 [SB-202620]  5%
11. O=C1NC(=O)C(c2ccc(Cl)cc2)=C1Nc1ccccc1 [SB-317661]  4%
12. O=C1NC(=O)C(c2ccc(Cl)cc2)=C1Nc1ccc(O)c(Cl)c1 [SB-405367]  0%
13. O=C1NC(=O)C(c2ccc(Cl)cc2)=C1Nc1cccc(O)c1 [SB-333613]  0%
14. O=C1NC(=O)C(c2ccccc2)=C1Nc1ccc(Cl)c(C(=O)O)c1 [SB-390532]  0%
15. COc1cccc(C2=C(Nc3ccc(SC)cc3)C(=O)NC2=O)c1 [SB-331032]  0%
16. COc1ccc(C2=C(Nc3cccc(Cl)c3)C(=O)NC2=O)cc1 [SB-326892]  0%

Each molecule was assayed on CDKL3. Conditions: concentration: 1 μM,replicates: in singlicate; n = 1.

In order of rising “%Inh” value:
1. O=C1NC(=O)C(c2ccc(Cl)cc2)=C1Nc1cccc(C(=O)O)c1 [SB-360737]  0%
2. O=C1NC(=O)C(c2ccccc2Cl)=C1Nc1cccc(C(=O)O)c1 [SB-390526]  0%
3. O=C1NC(=O)C(c2ccc(Cl)cc2)=C1Nc1ccc(O)c(Cl)c1 [SB-405367]  0%
4. O=C1NC(=O)C(c2ccc(Cl)cc2)=C1Nc1cccc(O)c1 [SB-333613]  0%
5. O=C1NC(=O)C(c2ccccc2)=C1Nc1cc(Cl)c(O)c(Cl)c1 [SB-390530]  0%
6. Cc1ccc(C)c(Oc2nccc(-c3c(-c4ccc(F)cc4)ncn3C3CCNCC3)n2)c1.O=C(O)C(F)(F)F.O=C(O)C(F)(F)F.O=C(O)C(F)(F)F [SB-284852]  0%
7. O=C1NC(=O)C(c2ccccc2)=C1Nc1ccc(Cl)c(C(=O)O)c1 [SB-390532]  0%
8. O=C1NC(=O)C(c2ccccc2Cl)=C1Nc1ccccc1 [SB-376715]  0%
9. COc1cccc(C2=C(Nc3ccc(SC)cc3)C(=O)NC2=O)c1 [SB-331032]  0%
10. COc1ccc(C2=C(Nc3cccc(Cl)c3)C(=O)NC2=O)cc1 [SB-326892]  0%
11. CSc1ccc(NC2=C(c3cccc(Cl)c3)C(=O)NC2=O)cc1 [SB-341528]  0%
12. CS(=O)(=O)c1ccccc1-c1nc(-c2ccc(F)cc2)c(-c2ccncc2)[nH]1 [SB-213663]  0%
13. Cc1cc(C)cc(Oc2nccc(-c3c(-c4ccc(F)cc4)ncn3C3CCNCC3)n2)c1.O=C(O)C(F)(F)F.O=C(O)C(F)(F)F.O=C(O)C(F)(F)F [SB-284851]  2%
14. O=C1NC(=O)C(c2ccc(Cl)cc2)=C1Nc1ccccc1 [SB-317661]  11%
15. O=C(O)c1ccc(-c2nc(-c3ccc(F)cc3)c(-c3ccncc3)[nH]2)cc1 [SB-202620]  12%
16. O=C1NC(=O)c2c1c(-c1ccccc1)cc1[nH]c3ccc(O)cc3c21  16%
